Where a chain is given by its changes, count along the chain named.
B1: anti-GITR 51B VH4/VL3 humanized antibody (human IgG1, kappa) (antibody)
heavy: QVQLVQSGAEVKKPGASVKVSCKTTGYRFTGYWINWVRQPPGKGLEWIGEILPGSGATYYSENFKGKVTITADTSTDTAYMELSSLRSEDTAIYYCARKGGYYAMDYWGQGTLVTVSSASTKGPSVFPLAPSSKSTSGGTAALGCLVKDYFPEPVTVSWNSGALTSGVHTFPAVLQSSGLYSLSSVVTVPSSSLGTQTYICNVNHKPSNTKVDKRV[human IgG1 Fc not printed]
light: EIVLTQSPATLSLSPGERATLSCTASSSVSSSYFHWYQQKPGSAPKLWIYSTSNLASGVPDRFSGSGSGTDYTLTISSLQAEDVATYYCHLYHRSPRTFGGGTKVEIKRTVAAPSVFIFPPSDEQLKSGTASVVCLLNNFYPREAKVQWKVDNALQSGNSQESVTEQDSKDSTYSLSSTLTLSKADYEKHKVYACEVTHQGLSSPVTKSFNRGEC
B2: anti-GITR 51B VH4/VL2 humanized antibody (human IgG1, kappa) (antibody)
heavy: B1 heavy
light: B1 light with E1Q, L21M
B3: anti-GITR 51B VH5/VL2 humanized antibody (human IgG1, kappa) (antibody)
heavy: B1 heavy with N35D
light: B1 light with E1Q, L21M
B4: anti-GITR 51B VH5/VL3 humanized antibody (human IgG1, kappa) (antibody)
heavy: B1 heavy with N35D
light: B1 light
B5: anti-GITR 51B VH1/VL2 humanized antibody (human IgG1, kappa) (antibody)
heavy: B1 heavy with V11L, V20L, N35E, V68A, D77N, L83V, E89G, T91S, L113S
light: B1 light with E1Q, L21M
B6: anti-GITR 51B VH3/VL3 humanized antibody (human IgG1, kappa) (antibody)
heavy: B1 heavy with N35E
light: B1 light
B7: anti-GITR 51B VH2/VL2 humanized antibody (human IgG1, kappa) (antibody)
heavy: B1 heavy with V20L, N35E, V68A, D77N, L83V
light: B1 light with E1Q, L21M
B8: anti-GITR 51B VH1/VL3 humanized antibody (human IgG1, kappa) (antibody)
heavy: B1 heavy with V11L, V20L, N35E, V68A, D77N, L83V, E89G, T91S, L113S
light: B1 light
B9: anti-GITR 51B VH3/VL2 humanized antibody (human IgG1, kappa) (antibody)
heavy: B1 heavy with N35E
light: B1 light with E1Q, L21M
B10: anti-GITR 51B VH2/VL3 humanized antibody (human IgG1, kappa) (antibody)
heavy: B1 heavy with V20L, N35E, V68A, D77N, L83V
light: B1 light

target: recombinant human GITR (Cat No. 13643-H08H, Lot No. LC12JA2509, Sino Biological) (human) (UniProt Q9Y5U5); assay: SPR Biacore 8K, single-cycle kinetics, IgG in supernatant captured on Protein A, GITR as analyte

Kd | Relative KD (fold vs VH0/VL0) | koff | kon | Binder
1.02 nM | 1.8 | 0.000566 s⁻¹ | 554000 M⁻¹ s⁻¹ | B1
1.05 nM | 1.9 | 0.000561 s⁻¹ | 535000 M⁻¹ s⁻¹ | B2
2.33 nM | 4.1 | 0.000961 s⁻¹ | 412000 M⁻¹ s⁻¹ | B3
1.93 nM | 3.4 | 0.00074 s⁻¹ | 384000 M⁻¹ s⁻¹ | B4
1.16 nM | 2 | 0.000595 s⁻¹ | 515000 M⁻¹ s⁻¹ | B5
0.791 nM | 1.4 | 0.000504 s⁻¹ | 637000 M⁻¹ s⁻¹ | B6
1.09 nM | 1.9 | 0.000596 s⁻¹ | 548000 M⁻¹ s⁻¹ | B7
1.04 nM | 1.8 | 0.000541 s⁻¹ | 521000 M⁻¹ s⁻¹ | B8
0.737 nM | 1.3 | 0.000491 s⁻¹ | 666000 M⁻¹ s⁻¹ | B9
1.22 nM | 2.2 | 0.00063 s⁻¹ | 515000 M⁻¹ s⁻¹ | B10

target: recombinant human GITR (Cat No. 13643-H08H, Lot No. LC12JA2509, Sino Biological) (human) (UniProt Q9Y5U5); assay: SPR Biacore 8K, multi-cycle kinetics, purified IgG captured on Protein A, GITR as analyte

Kd | Relative KD (fold vs VH0/VL0) | koff | kon | Binder
0.81 nM | 1.42 | 0.000507 s⁻¹ | 626000 M⁻¹ s⁻¹ | B1
0.643 nM | 1.13 | 0.000426 s⁻¹ | 663000 M⁻¹ s⁻¹ | B6

From patent publication EP4339209A1 (MediMabbio Inc., dated 2024)
